Measurements from PMC4336329 (PLoS ONE, 2015).
About 14,000 (4.5%) of roughly 310,000 compounds showed an effect of 50% or more. The effect is printed as a negative number. This is one part of the list.

What follows are molecules tested against human ether-à-go-go-related gene (hERG) potassium channel (human, UniProt Q12809) (assay: primary screen, population patch clamp on CHO cells stably expressing hERG).
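Further: peak tail current of the secondary pulse compared with the same well before compound.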

human ether-à-go-go-related gene (hERG) potassium channel, sequence (Q12809 whole entry, looked up): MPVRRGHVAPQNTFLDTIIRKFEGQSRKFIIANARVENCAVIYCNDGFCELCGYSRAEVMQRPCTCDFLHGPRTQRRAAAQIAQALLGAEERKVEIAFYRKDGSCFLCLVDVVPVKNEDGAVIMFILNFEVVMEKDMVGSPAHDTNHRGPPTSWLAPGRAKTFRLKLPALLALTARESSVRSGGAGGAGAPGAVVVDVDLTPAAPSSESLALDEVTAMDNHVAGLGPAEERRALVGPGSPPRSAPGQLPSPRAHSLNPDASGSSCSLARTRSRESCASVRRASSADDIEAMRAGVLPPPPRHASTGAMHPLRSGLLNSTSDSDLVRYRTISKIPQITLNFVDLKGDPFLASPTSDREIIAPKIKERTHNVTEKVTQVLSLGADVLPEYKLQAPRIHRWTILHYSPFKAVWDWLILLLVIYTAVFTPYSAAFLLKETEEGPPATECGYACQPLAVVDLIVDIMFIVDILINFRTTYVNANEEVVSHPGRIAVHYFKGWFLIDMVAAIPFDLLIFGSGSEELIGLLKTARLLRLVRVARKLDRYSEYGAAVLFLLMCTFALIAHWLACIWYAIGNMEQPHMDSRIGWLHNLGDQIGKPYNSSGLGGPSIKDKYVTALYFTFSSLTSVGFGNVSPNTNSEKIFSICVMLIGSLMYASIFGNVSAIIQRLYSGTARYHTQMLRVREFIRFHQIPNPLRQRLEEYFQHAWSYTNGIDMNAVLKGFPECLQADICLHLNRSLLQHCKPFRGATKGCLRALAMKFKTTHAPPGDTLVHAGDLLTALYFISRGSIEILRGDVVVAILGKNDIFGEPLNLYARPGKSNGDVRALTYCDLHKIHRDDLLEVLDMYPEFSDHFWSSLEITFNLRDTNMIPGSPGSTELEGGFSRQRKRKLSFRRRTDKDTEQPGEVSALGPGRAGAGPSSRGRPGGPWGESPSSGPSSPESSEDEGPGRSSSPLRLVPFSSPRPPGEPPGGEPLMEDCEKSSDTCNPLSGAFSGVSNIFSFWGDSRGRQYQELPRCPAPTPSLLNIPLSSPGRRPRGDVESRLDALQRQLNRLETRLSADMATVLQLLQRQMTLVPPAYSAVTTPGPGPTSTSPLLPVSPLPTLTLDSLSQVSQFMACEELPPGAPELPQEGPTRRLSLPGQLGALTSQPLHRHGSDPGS

Row | Structure (SMILES) | hERG current change (%, negative = inhibition) at 10uM
1 | COc1ccc(OC)c(NC(=S)NCC(c2cccnc2)N2CCOCC2)c1 (stereo not drawn) | 4.6%
2 | O=C(CNC(=O)c1cccc(F)c1)N/N=C/C=C/c1ccccc1 | -4.12%
3 | CN(C)c1cc(-c2cccc(C(F)(F)F)c2)oc(=O)c1Cl | 9.42%
4 | Cc1cccc2sc(NC(=O)c3cccc(S(=O)(=O)N4CCc5ccccc54)c3)nc12 | 11.2%
5 | COc1ccc(NC(=S)NCCN2CCOCC2)c(OC)c1 | -1.03%
6 | CCOC(=O)c1ccccc1NC(=S)N1CCC(C(N)=O)CC1 | 7.99%
7 | C/C(=N\NC(=S)NCc1ccccc1)c1ccc(C(C)(C)C)cc1 | 27.9%
8 | COc1ccc2c(Cl)c(C(=O)NN)sc2c1 | 7.88%
9 | COc1ccc(NC(=O)c2ccccc2)cc1 | 13.6%
10 | CCn1c(SC)nc2cc(S(=O)(=O)N3CCCCC3)ccc21 | -21.5%
11 | COc1ccc(-c2noc(CCCC(=O)NC3CCCC3)n2)cc1OC | -2.97%
12 | Cc1ccccc1CNC(=O)c1ccccc1 | 7.43%
13 | CC(=O)N1CCCN(Cc2cn(-c3ccc(C)cc3)nc2-c2cccc(C)c2)CC1 | -43%
14 | COc1ccc(N2CC(C(=O)Nc3cc(C)ccn3)CC2=O)cc1 (stereo not drawn) | -9.22%
15 | CCOC(=O)C1(Cc2cccc(Cl)c2)CCCN(C(=O)CCSC)C1 (stereo not drawn) | -7.38%
16 | CC(NC(=O)c1nn(C)c(=O)c2ccccc12)c1ccc(F)cc1 (stereo not drawn) | -3.84%
17 | O=C(c1ccccc1)C1CCN(C(=O)C2CCC(=O)N(Cc3ccccc3F)C2)CC1 (stereo not drawn) | 3.08%
18 | O=C(CSc1ncnc2nc[nH]c12)NCCc1ccccc1 | 9.1%
19 | CCOC(=O)N1CCC(NS(=O)(=O)c2cc(Br)cnc2N)CC1 | -4.52%

Row | Structure (SMILES) | hERG current change (%, negative = inhibition) at 10uM
20 | COc1ccc(CNC(=O)[C@@H](C)NC(=O)[C@@H]2Cc3ccccc3CN2)cc1 | -15.7%
21 | Cc1ccc(CNS(=O)(=O)N(C)C)cc1 | 21.5%
22 | CCC(=O)NC(Cc1ccccc1)c1nc2ccccc2[nH]1 (stereo not drawn) | 7.19%
23 | CCc1ccc(CN2CCN(Cc3cc(Br)ccc3O)CC2)cc1 | -1.81%
24 | Cc1cc(NC(=O)C2C3C(=O)N(CC4CCCO4)C(C(=O)NCc4ccccc4)C34C=CC2(C)O4)no1 (stereo not drawn) | 16.8%
25 | Oc1cccc(CCC2CCCCN2Cc2cn[nH]c2-c2ccc3c(c2)OCO3)c1 (stereo not drawn) | -66.2%
26 | COc1ccc(OC)c(NC(=O)CC2SC(=NCc3ccccc3)NC2=O)c1 (stereo not drawn) | 24.6%
27 | O=S1(=O)CC(O)C(N(CCO)C(=S)Nc2ccccc2)C1 (stereo not drawn) | 13.5%
28 | C/C=C(\C)CN1CCN(c2cc(C)ccc2C)CC1 | 6.08%
29 | Cc1cc(C(=O)CN2C(=O)NC(C)(c3ccccc3)C2=O)c(C)n1CC1CCCO1 (stereo not drawn) | -27.8%
30 | CC(=O)Nc1ccc(C2NC(=O)CCC2[N+](=O)[O-])cc1 (stereo not drawn) | 6.05%
31 | COc1ccccc1C(=O)NCCC(=O)Nc1ncccc1O | 17%
32 | O=C(NC(=S)NC1CCS(=O)(=O)C1)c1ccccc1F (stereo not drawn) | 20.8%
33 | Cc1cc(C)cc(NC(=O)Cc2ccc(-n3cccc3)cc2)c1 | 25.6%
34 | Cc1ccc(C(=O)NCCCNC(=O)COc2ccc(Cl)c(C)c2)cn1 | -15.8%
35 | O=C(c1ccc(F)cc1)C1CCN(C(=S)NCC2CCCO2)CC1 (stereo not drawn) | -26.2%
36 | COc1ccc(-c2nn3c(-c4ccc(F)cc4)nnc3s2)cc1 | 6.12%
37 | COc1ccc(NS(=O)(=O)c2cc3c(cc2C)N(C(C)=O)CCO3)cc1 | -4.83%
38 | CC(=O)OC12CC3CC(C1)C(=NO)C(C3)C2 | 5.46%

Row | Structure (SMILES) | hERG current change (%, negative = inhibition) at 10uM
39 | CC(C)c1ccc(C2/C(=C(\O)c3ccc4c(c3)OCCO4)C(=O)C(=O)N2CCN2CCOCC2)cc1 (stereo not drawn) | 14.9%
40 | Cc1cc(C)c(C(N)=O)c(NCCc2ccccc2)n1 | 12.2%
41 | Cc1ccccc1OCc1nnc(SCCN2CCCC2)n1-c1ccccc1.Cl | -65.3%
42 | CCC(C)(C)n1nnnc1C(c1ccccc1OC)N1CCN(C(=O)c2ccco2)CC1 (stereo not drawn) | -32.6%
43 | CCCc1nnc(NC(=O)c2cn(CC)c3cc(N4CCN(C)CC4)c(F)cc3c2=O)s1 | 13%
44 | Cc1cc(=O)oc2cc(OCC(=O)N3CCN(Cc4ccc5c(c4)OCO5)CC3)ccc12 | -42.9%
45 | CCN(CC)S(=O)(=O)c1cc(NC(=O)Cn2cnc3ccccc3c2=O)ccc1C | -54.8%
46 | CCNc1nc(NCC)nc(N(C)N)n1 | 2.72%
47 | COc1ccc(NC(=O)c2ccc3c(SCC(=O)O)c4c(nc3c2)CCCC4)cc1Cl | 12%
48 | Cc1c(C(=O)Nc2cc(S(=O)(=O)N3CCOCC3)ccc2N2CCOCC2)oc2ccccc12 | 10.4%
49 | O=C(Nc1nc2ccccc2[nH]1)C1CCC1 | 14.6%
50 | COc1ccc(-n2nc3c(N)n[nH]c3cc2=O)cc1 | -2.4%
51 | NC(=O)CC(NC(=O)c1ccccc1)c1ccc(N2CCN(c3ccccc3)CC2)c([N+](=O)[O-])c1 (stereo not drawn) | 1.33%
52 | CC(=O)Nc1ccc(S(=O)(=O)Nc2nc3ccccc3s2)cc1 | 4.98%
53 | COc1cccc(CN(C)C(=O)CC2C(=O)NCCN2C2Cc3ccccc3C2)c1 (stereo not drawn) | -11.1%
54 | O=C1[C@@H]2C(Cc3ccc(O)cc3)NC3(C(=O)Nc4ccc(F)cc43)[C@@H]2C(=O)N1c1ccccc1 (stereo partly drawn) | 1.61%
55 | O=C(NCc1ccccc1)c1ccc(CNc2c(N3CCCC3)c(=O)c2=O)cc1 | 0.027%
56 | O=C(Cn1nc(C(F)(F)F)c2c1CCCCC2)N1CCOCC1 | 14.6%
57 | CC(=O)c1cccc(NC(=O)C(OC(=O)c2cccc(S(=O)(=O)N(C)c3ccccc3)c2)c2ccccc2)c1 (stereo not drawn) | 12.4%
